Some of the results follow.

The assay relates to PF3D7_0420300 AP2 domain 1 (GST-tagged). In words: gcPBM binding intensity (ln(normalized median fluorescence intensity)); higher = stronger DNA binding. The procedure, abridged: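 Binding of GST-tagged P. falciparum DNA-binding domains, expressed in E. coli and used at about 25 μg on average, was carried out for 1 h in 1× PBS containing 1% milk, 0.2 mg/ml BSA, 0.5% salmon testes DNA and 0.03% Triton X-100. The target was an Agilent 4 × 180k array of primer-extended double-stranded 36-bp intergenic genomic probes plus negative controls, read with Alexa488 anti-GST antibody at 488 nm. Binding intensity is the highest Masliner-normalised natural-log median intensity across replicate spots of either probe orientation.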
Turning to “TATATAAATATATAATGTACGTTTTAAAAATAATAT [XGTACX_site3881]”, the “gcPBM binding intensity (ln)” value came to 9.19. To “ATATATTAATATGTGTGTACTTAACCATTCATATGT [XGTACX_site7395]” belongs 9.55; to “ATATAATAAATGTAGGTGCATAAAAATATTTTGTTA [GTGCAC_site9780]”, 9.39; to “TTTTAATAATATGGATGTACATAAAAATAAATAAAT [XGTACX_site7937]”, 9.39.

On to “TTAACCACTAAAAGTACACACATATATACCTATATA [CACACA_site6026]”, for which the “gcPBM binding intensity (ln)” value was determined as 9.53. To “TAGTATTATTTTTTTTGTACATATAAATGTAAAATA [XGTACX_site5282]” belongs 8.99; to “TTTTTTTAAAATATGAGTACATAATATTGTAAAAAT [XGTACX_site6536]”, 8.92. To “AAAACATAAATACATACACACATAATATATATTAAG [CACACA_site4239]” belongs 9.91; to “AATATATTAAATATTACACACATACATTTAGTGGAA [CACACA_site8609]”, 9.49. For the sequence “TACTAAGAAAAGAACTGTACATAGAATATACCCAAG [XGTACX_site4757]”, the “gcPBM binding intensity (ln)” value was found to be 9.39. With “AATATCAAAAAAAAAAAAAAAAAAAAAAAAAAAAAA [CACACA_negctrl_site288]”, the “gcPBM binding intensity (ln)” value is 8.59. To “ATGATAATTATTAAGGGTACATAAAAATATATCTAT [XGTACX_site8969]” belongs 9.28; to “TATAATTATTTTTTCACACATATGTATTTATATATA [CACACA_site4205]”, 9.41; to “ATTATTTAACATGTGGACACAAAAATTTAAGGGTTC [CACACA_negctrl_site1269]”, 9.31. To “AGATATATATATAGGTGTACTGGAATGAAATTGTTT [XGTACX_site8200]” belongs 9.48. To “ATGTATATTTTTAAAAGTACAGAATTTTCATATGAA [XGTACX_site5754]” belongs 9.03; to “ATAGTATCTGGTAGCTGTACGAGTCGTAGAGTCTAA [XGTACX_site2539]”, 9.11; to “ATATACAATACAAAAACACACACAAAAAAAGAAAAG [CACACA_site8668]”, 10.1.

For “TATTTATTTATGTACGCACACAGTTGATATTAATTC [CACACA_site2754]”, the “gcPBM binding intensity (ln)” value was 9.4. To “TAAATATAATCTAAATGTACATGACATAATTTTTTT [XGTACX_site2856]” belongs 9.03; to “GTGTAATATGAAATGTGTACACACGCACACACAAAA [XGTACX_site6180]”, 9.98. “TAAAATATTTTTTGTAGTACCTTAATATTTTTGAAG [XGTACX_site3048]”: the “gcPBM binding intensity (ln)” value was 8.86. For “TTTCAAAAATGAGTTACACACACACCGATATATATA [CACACA_site5263]”, the “gcPBM binding intensity (ln)” value came to 9.97. To AATAAATACTAAATGGTGCAAAATTTTTTAACACTG belongs 9.27; to “TATATATATTATAGATGTACTTTCATATATATGTTT [XGTACX_site8189]”, 9.3. The result for “AGCCACCATATTTACACACACATCAAAATGTATTAA [CACACA_site1816]” reads 10. The result for “TATTCATCACTTTTTTGTACTTATGGATAAAATTTT [XGTACX_site3349]” reads 9.32; that for “ATAATTGTTTCTTTCTCCTTTTTATTTCATTTTAAA [CACACA_negctrl_site964]”, 9.48; that for “CACAAAAAAAATTATACACACACACCCATATATATA [CACACA_site8255]”, 9.99. Take “AAAGGATATATCCAGAGTACATATTCTGTGTAATAC [XGTACX_site1547]”: the “gcPBM binding intensity (ln)” value worked out at 9.37. To “TGTCTTATTTATATTACACACTATATGAAAAAATAT [CACACA_site6807]” belongs 9.24; to “ATATATATATATATATGTACATAATTAATAGCATAT [XGTACX_site1428]”, 9.38; to “GAAAAAGATGCGCATACACACAGATGAATAACAAAA [CACACA_site1628]”, 9.79. The result for “ATCATATTTATGTTGGTGCATTATACATAAAGTTTA [GTGCAC_site9574]” reads 9.2. As for “AAAATAAGAAAACAAATGCACACCATTTATATAGAT [CACACA_site1055]”, the “gcPBM binding intensity (ln)” value worked out at 9.72. To “TATATAATAAGAAAATATGTGCGTAGTTCAGCAAAA [XGTACX_negctrl_site304]” belongs 9.46; to GAAAAATATATTCTGGTGCATGAATAAAATCATAAA, 9.05. To “AATTGGATAAACCAATTGGATTATAATACGATATAT [CACACA_negctrl_site275]” belongs 9.11; to “AAAAAAAAAAAAAAAAGTACTCTATAAGTAACATTT [XGTACX_site6973]”, 8.98; to “ATTTTTTTGTTATTGTTGAAAAGATGGTTCTTTTTT [CACACA_negctrl_site1346]”, 9.32.

On to “AATTTCTTATTTTGTACACACAATAAATATTCACAT [CACACA_site1612]”, for which the “gcPBM binding intensity (ln)” value came out at 9.72. Take “TAGTAGTTATCATTAACATGCAATAATATTATTTAA [TGCATGCA_site178]”: the “gcPBM binding intensity (ln)” value came out at 9.04. Take “ATGAACATATTTTTTTGTACTTATGAAAATATGTTA [XGTACX_site5996]”: the “gcPBM binding intensity (ln)” value is 9.02.

With “AAGTTAGGATAGATCCAATAATTTTTAGTTTCTCTT [GTGCAC_negctrl_site272]”, the “gcPBM binding intensity (ln)” value came out at 9.04.

Values taken from the supplement of paper PMC11417369.
